Article PMC4336329 (PLoS ONE, 2015)
Among all 310,000 compounds or so, about 2,200 (0.71%) showed an effect of 50% or more. The effect is printed as a negative number. This is one part of the list.

target: human ether-à-go-go-related gene (hERG) potassium channel (human, UniProt Q12809); experiment: primary screen, population patch clamp on CHO cells stably expressing hERG
Sequence (Q12809 whole entry, looked up): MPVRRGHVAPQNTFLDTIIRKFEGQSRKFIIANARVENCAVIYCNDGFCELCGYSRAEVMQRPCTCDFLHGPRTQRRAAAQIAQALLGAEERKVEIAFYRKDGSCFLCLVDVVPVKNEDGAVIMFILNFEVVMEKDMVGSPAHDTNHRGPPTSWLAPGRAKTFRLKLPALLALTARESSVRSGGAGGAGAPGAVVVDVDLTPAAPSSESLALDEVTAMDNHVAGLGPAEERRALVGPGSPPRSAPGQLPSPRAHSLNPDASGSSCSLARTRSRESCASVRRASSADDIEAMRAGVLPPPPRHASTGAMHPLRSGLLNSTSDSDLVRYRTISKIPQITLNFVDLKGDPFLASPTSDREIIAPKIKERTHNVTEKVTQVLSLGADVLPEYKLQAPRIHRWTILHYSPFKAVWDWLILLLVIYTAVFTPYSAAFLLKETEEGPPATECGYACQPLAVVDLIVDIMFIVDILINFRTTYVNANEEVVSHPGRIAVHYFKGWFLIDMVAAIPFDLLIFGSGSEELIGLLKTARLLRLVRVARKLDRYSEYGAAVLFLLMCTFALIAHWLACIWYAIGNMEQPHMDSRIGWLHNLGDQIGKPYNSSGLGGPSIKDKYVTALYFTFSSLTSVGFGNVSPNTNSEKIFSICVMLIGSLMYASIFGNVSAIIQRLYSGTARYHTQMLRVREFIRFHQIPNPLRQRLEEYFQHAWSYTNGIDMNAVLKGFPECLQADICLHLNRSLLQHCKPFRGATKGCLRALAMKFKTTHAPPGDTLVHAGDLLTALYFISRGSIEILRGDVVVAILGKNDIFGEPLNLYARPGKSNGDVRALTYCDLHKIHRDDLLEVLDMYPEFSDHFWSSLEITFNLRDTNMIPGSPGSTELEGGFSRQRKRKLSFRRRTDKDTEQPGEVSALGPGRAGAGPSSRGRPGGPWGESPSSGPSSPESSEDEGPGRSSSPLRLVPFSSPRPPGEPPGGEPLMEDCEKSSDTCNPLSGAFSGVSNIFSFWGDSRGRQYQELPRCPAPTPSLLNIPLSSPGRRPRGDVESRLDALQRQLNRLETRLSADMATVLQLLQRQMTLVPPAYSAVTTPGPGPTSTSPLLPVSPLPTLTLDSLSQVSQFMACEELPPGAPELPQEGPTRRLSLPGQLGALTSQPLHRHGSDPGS

Row | Structure (SMILES) | hERG current change (%, negative = inhibition) at 1uM [%]
1 | O=C(O)Cn1cc(/C=C2/NC(=O)N(c3ccc(Cl)cc3)C2=O)c2ccccc21 | 12.3
2 | COc1cc(C(=O)OCC(=O)Nc2c(F)cccc2F)cc(OC)c1C | 9.64
3 | Cc1ccc(S(=O)(=O)NCC2CCC(C(=O)NCCCN3CCCC3=O)CC2)cc1 (stereo not shown) | 11.2
4 | CN(C)S(=O)(=O)N1CCC(Oc2cccc(C(=O)NCCC3=CCCCC3)c2)CC1 | 4.72
5 | CCOC(=O)c1c(C)c(C(=O)Nc2ccc3c(c2)OCO3)c(C)n1C | 3.25
6 | CCN1CCCC1CNC(=O)c1ccc2c(c1)N(Cc1ccccc1F)C(=O)c1ccccc1S2(=O)=O (stereo not shown) | 3.43
7 | COc1ccc(N2CCN(C(=O)CCS(=O)(=O)c3ccc(OC)cc3)CC2)cc1 | 2.17
8 | O=C(CN1C(=O)c2ccccc2C1=O)Nc1ccc(S(=O)(=O)NCC2CCCO2)cc1 (stereo not shown) | 20.2
9 | COC(=O)COc1cccc2c(=O)n(CC(=O)NCCc3ccc(OC)c(OC)c3)ccc12 | 9.77
10 | CC1(C)C2CCC1(CS(=O)(=O)NC1CCCC1)C(=O)C2 (stereo not shown) | 4.52
11 | Cc1ccc(C(=O)NCC(=O)N/N=C/c2cccs2)cc1[N+](=O)[O-] | 3.54
12 | Cc1ccc(/C=N/NC(=O)CNC(=O)COc2ccccc2)cc1 | 19
13 | CCOC(=O)C1=C(COC(=O)[C@@H]2CCCN2S(=O)(=O)c2ccc(C)cc2)NC(=O)NC1C (stereo partly shown) | 10.5
14 | CC(C)C(NC(=O)c1ccc(F)cc1)C(=O)NCC1CCCO1 (stereo not shown) | 13.3
15 | NC(N)=NC(=O)c1nc(Cl)c(N2CCCCCC2)nc1N | -11.6
16 | CCOC(=O)c1cc(-c2cccnc2)nn1-c1ccccc1C | 7.62
17 | CCOc1ccc(C(=O)OCC(=O)Nc2ccc3c(c2)OCCO3)cc1OC | 7.31
18 | COc1ccccc1N1C(=O)C2C(C(=O)c3ccccc3)=NN(c3ccc(C)cc3)C2C1=O (stereo not shown) | -6.99
19 | CCCS(=O)(=O)N1CCN(C(=O)c2ccc(-c3ccccc3)cc2)CC1 | -7.86
20 | COc1cccc(CN(C)Cc2nc3cc(C(F)(F)F)ccc3c(=O)[nH]2)c1 | 11.6
21 | CC(NS(=O)(=O)c1ccc2c(c1)OCCCO2)C(=O)O (stereo not shown) | 12.7
22 | CCOc1ccc(S(=O)(=O)N(CC)CC(=O)NC2CCS(=O)(=O)C2)cc1 (stereo not shown) | 7.79

Row | Structure (SMILES) | hERG current change (%, negative = inhibition) at 1uM [%]
23 | CCCCn1c(=O)c(C(=O)Nc2ccccc2C)c(O)c2ccccc21 | 16.2
24 | CCCN(CCC)S(=O)(=O)c1ccc(C(=O)N2CCC(=O)c3ccccc32)cc1 | 16.9
25 | COC(=O)c1cnc(N2CCCN(S(=O)(=O)c3ccccc3)CC2)nc1C(F)(F)F | 10.6
26 | O=C(C1CC1)N1CCc2cc(S(=O)(=O)N3CCCc4ccccc43)ccc21 | 11.2
27 | COc1ccc(S(=O)(=O)N(CC(=O)NCc2cccnc2)Cc2ccccc2)cc1 | -51.2
28 | N#Cc1c(F)cccc1NCc1cccnc1 | 7.83
29 | COc1ccc(/C=N\NC(=O)c2sc(N)nc2C)cc1OC | 8.97
30 | COc1ccc(-c2csc(NC(=O)c3cccc(N4C(=O)CCC4=O)c3)n2)cc1OC | 11.1
31 | COc1ccc(/C=N/NC(=O)Cn2cnc3ccccc3c2=O)cc1OC | 0.936
32 | CN(C(=O)Nc1ccccc1)C1CCCc2ccccc21 (stereo not shown) | 10.9
33 | CCOC(=O)CN=C/C(C(=O)Nc1nccs1)=C(/C)O | 17.5
34 | O=C(Nc1ccc(F)cc1)NC1CCN(Cc2c(F)cccc2Cl)CC1 | 6.95
35 | CC(=O)Nc1ccc(N2CCC(C)CC2)c([N+](=O)[O-])c1 | 7.46
36 | Cc1ccccc1CCNC(=O)C1CCC(=O)N(C2CCCCCC2)C1 (stereo not shown) | 7.2
37 | COc1cc(NC(=O)c2ccc(COCC(F)(F)F)o2)cc(OC)c1OC | -0.535
38 | CCOc1cc(/C=C/C(=O)c2ccc3c(c2)OCCO3)ccc1OCC(=O)N(C)C | 15
39 | Cc1c(C(=O)NCc2ccccn2)oc2ccc(S(=O)(=O)N3CCC4(CC3)OCCO4)cc12 | 2.47
40 | Cc1ccc(NC(=S)NC2CCSc3ccccc32)cc1 (stereo not shown) | 12.3
41 | COc1ccc(C(=O)O/N=C(\N)Cc2ccc(Cl)c(Cl)c2)cc1OC | 9.39
42 | CC(C)(C)C(=O)Cn1c(=O)n(-c2ccc(F)cc2F)c(=O)c2sccc21 | 13.9
43 | Cc1cccc(C)c1OCc1nnc(SCC(=O)Nc2nccs2)o1 | -2.37
44 | Cc1ccc(C(=O)NCCC2=CCCCC2)cc1S(=O)(=O)N1CCOCC1 | 12.3

Row | Structure (SMILES) | hERG current change (%, negative = inhibition) at 1uM [%]
45 | CC(CCO)Nc1nc2c([nH]1)c(=O)n(C)c(=O)n2C (stereo not shown) | 13.4
46 | COc1ccc(C2=NN(C(=O)c3cccnc3)C(c3ccccc3)C2)cc1 (stereo not shown) | 7.81
47 | COc1ccc(OC)c(C(=O)NC2CC(C)(C)Cc3c2cnn3-c2ccccc2)c1 (stereo not shown) | 10.9
48 | O=C(CCCOc1ccc(Cl)cc1Cl)N/N=C/c1ccco1 | 6.7
49 | Cc1cc(C)n(-c2nc3c(c(=O)[nH]c(=O)n3C)n2C(C)C)n1 | 17.5
50 | O=C(N/N=C/c1ccccc1)c1ccc(-c2ccccc2)cc1 | 18.7
51 | Cc1cc(NC(=O)/C=C/c2ccc(Cl)cc2)no1 | 11.3
52 | Cc1ccc(NC(=O)c2cncc(Br)c2)c([N+](=O)[O-])c1 | 1.51
53 | O=C(CN(c1ccc(F)cc1)S(=O)(=O)c1ccc2c(c1)OCCO2)NCc1ccccc1 | 6.06
54 | COc1ccc(NC2CCCN(Cc3cccc4cnccc34)C2)cc1OC (stereo not shown) | 5.29
55 | COc1cc(OCC(N)=O)cc(OC)c1OC | 7.48
56 | O=C([O-])c1ccc(-n2nc(C(F)(F)F)cc2-c2cccs2)cc1.[Na+] | 10.3
57 | O=C(Cn1c(=O)c(=O)n(Cc2ccccc2)c2ccc(Cl)cc21)Nc1ccc(F)cc1F | 13.1
58 | CCCC(=O)NC(C)c1nc2ccccc2n1C (stereo not shown) | 7.33
59 | COc1cccc(Cn2cccc(NC(=O)Nc3ccc(C#N)cc3)c2=O)c1 | 6.91
60 | CCCCNC(=O)C1CCN(c2nc(C)cc(C)n2)CC1 | 14.5
61 | CCOC(=O)CN(C(=O)CSc1nnc(Cc2ccccc2)n1-c1ccc(C)cc1)c1ccccc1 | -1.66
62 | Cc1c(C(=O)NCCNc2ncc(C(F)(F)F)cc2Cl)cccc1[N+](=O)[O-] | 9.16
63 | c1ccc2c(-n3cnnn3)cccc2c1 | 5.26
64 | CCCCCOC(=O)Cc1c(O)c2ccccc2[nH]c1=O | 15.9
65 | COc1cc(/C=C2\SC(=S)N(CC(=O)O)C2=O)ccc1OC(=O)c1ccco1 | 1.93
66 | c1csc(-n2nc3ccccc3n2)c1 | -1.06

Row | Structure (SMILES) | hERG current change (%, negative = inhibition) at 1uM [%]
67 | O=c1c2ccccc2nc(CSc2ncnc3nc[nH]c23)n1-c1ccccc1Cl | 14.5
68 | CC1=NN(C(=O)c2cc(C)nn2C)C(O)(C(F)(F)F)C1 (stereo not shown) | 16.7
69 | COc1ccc(-c2nnc(SCc3ncc(-c4ccccc4)o3)o2)cc1 | 9.13
70 | COC(=O)c1sc(C(C)(C)C)cc1CS(=O)(=O)c1ccccn1 | 11.7
71 | CCOC(=O)C(N)CSC1CC(=O)N(c2ccc(C(=O)OC)cc2)C1=O (stereo not shown) | 10.2
72 | Cc1nnc(N/N=C/c2c[nH]c3ccccc23)[nH]c1=O | 5.73
73 | NC(=O)NC(=O)COC(=O)c1cccc(NS(=O)(=O)/C=C/c2ccccc2)c1 | 2.21
74 | CC1=NN(C(=O)c2ccccc2F)C(O)(c2ccc(Cl)cc2)C1 (stereo not shown) | 12.6
75 | Cc1ccccc1C(=O)NNC(=O)/C=C\C(=O)O | -10.7
76 | O=C(Nc1ccccc1F)c1coc(=O)c(Br)c1 | 3.91
77 | Cc1ccc(-n2sc3ccccc3c2=O)cc1 | 19.3
78 | CCCN1CNC(=S)N(c2cc(C)ccc2C)C1 | -0.38
79 | COc1ccc(-c2[nH]nc3oc(=O)cc(C)c23)cc1 | 7.06
80 | CC(=O)Nc1ccc(S(=O)(=O)N2CCC(C(=O)N[C@@H](C)C(=O)NC3CCCC3)CC2)cc1 | 26.7
81 | CC(C)NC(=O)c1ccccc1S(=O)c1ccccc1C#N (stereo not shown) | 9.68
82 | COC(=O)c1ccc(C2c3c(oc4ccc(Cl)cc4c3=O)C(=O)N2CCN2CCOCC2)cc1 (stereo not shown) | -0.385
83 | CC[n+]1c(SC)ccc2cc(OC)ccc21.[O-][Cl+3]([O-])([O-])[O-] | 5.74
84 | CCOC(=O)Nc1ccc2c(c1)nc(CN1CCN(C(C)=O)CC1)n2C | 9.62
85 | C#CCNC(=O)C1=C[C@H](c2csc3ccccc23)[C@@H](CCCO)[C@H](OCC)O1 | 10
86 | COc1ccccc1N1CCN(C(=O)CCNS(=O)(=O)c2cc(Br)cnc2N)CC1 | 8.39
87 | CC(=O)Nc1cccc2c1C(=O)N(c1cccc(OC(C)=O)c1)C2=O | 11
88 | O=C(O)CCCC(=O)Nc1cc([N+](=O)[O-])ccc1O | 5.64
